# The list shows a part of the results.
# How the values were obtained:
# Assay in all cases: glycan array binding signal (z-score within array); higher = stronger binding
# Conditions in all cases: glycan notation: IUPAC condensed, linker removed
# [1] = target: Fuc(a1-3)[Gal(b1-4)]GlcNAc(b1-2)Man(a1-6)[Gal(b1-4)GlcNAc(b1-2)Man(a1-3)]Man(b1-4)GlcNAc(b1-4)GlcNAc
# Outline: (§1)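 The binding signal is a Z-score computed within each array and averaged over linkers. Arrays of the same protein sequence at different concentrations or buffers were also averaged together. Data originate from 3228 arrays in the Consortium for Functional Glycomics database, kept only where the protein sequence was available.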
# [2] = target: Fuc(a1-3)[Gal(b1-4)]GlcNAc(b1-3)Gal(b1-3)[Fuc(a1-4)]GlcNAc
# Outline: as §1
# [3] = target: Fuc(a1-3)[Gal(b1-4)]GlcNAc(b1-4)Gal(b1-4)[Fuc(a1-3)]GlcNAc
# Outline: as §1
# [4] = target: Fuc(a1-3)[Gal(b1-4)]GlcNAc(b1-4)Gal(b1-4)[Fuc(a1-3)]GlcNAc(b1-4)Gal(b1-4)[Fuc(a1-3)]GlcNAc
# Outline: as §1
# [5] = target: Fuc(a1-3)[Gal(b1-4)]GlcNAc6S
# Outline: as §1
# [6] = target: Fuc(a1-3)[Gal3S(b1-4)]Glc6S
# Outline: as §1
# [7] = target: Fuc(a1-3)[Gal3S(b1-4)]GlcNAc
# Outline: as §1
# [8] = target: Fuc(a1-3)[Gal3S(b1-4)]GlcNAc6S
# Outline: as §1
# [9] = target: Fuc(a1-3)[GalNAc(b1-4)]GlcNAc
# Outline: as §1
# Fuc(a1-4)GlcNAc = target: Fuc(a1-4)GlcNAc
# Outline: as §1
# Fuc(b1-3)GlcNAc = target: Fuc(b1-3)GlcNAc
# Outline: as §1
# Gal(a1-2)Gal = target: Gal(a1-2)Gal
# Outline: as §1
# Gal(a1-3)Gal = target: Gal(a1-3)Gal
# Outline: as §1
# Gal(a1-3)Gal(b1-3)GlcNAc = target: Gal(a1-3)Gal(b1-3)GlcNAc
# Outline: as §1
# Gal(a1-3)Gal(b1-4)Glc = target: Gal(a1-3)Gal(b1-4)Glc
# Outline: as §1
# Gal(a1-3)Gal(b1-4)GlcNAc = target: Gal(a1-3)Gal(b1-4)GlcNAc
# Outline: as §1
# [10] = target: Gal(a1-3)Gal(b1-4)[Fuc(a1-3)]GlcNAc
# Outline: as §1
# Gal(a1-3)GalNAc = target: Gal(a1-3)GalNAc
# Outline: as §1
# [11] = target: Gal(a1-3)[Gal(a1-4)]Gal(b1-4)GlcNAc
# Outline: as §1
# Gal(a1-4)Gal(b1-4)Glc = target: Gal(a1-4)Gal(b1-4)Glc
# Outline: as §1
# Gal(a1-4)Gal(b1-4)GlcNAc = target: Gal(a1-4)Gal(b1-4)GlcNAc
# Outline: as §1
# Gal(a1-4)GlcNAc = target: Gal(a1-4)GlcNAc
# Outline: as §1
# Gal(a1-6)Glc = target: Gal(a1-6)Glc
# Outline: as §1
# Gal(b1-2)Gal = target: Gal(b1-2)Gal
# Outline: as §1
# Gal(b1-3)Gal = target: Gal(b1-3)Gal
# Outline: as §1
# Gal(b1-3)Gal(b1-4)GlcNAc = target: Gal(b1-3)Gal(b1-4)GlcNAc
# Outline: as §1
# Gal(b1-3)GalNAc = target: Gal(b1-3)GalNAc
# Outline: as §1
# [12] = target: Gal(b1-3)GalNAc(b1-3)Gal(a1-4)Gal(b1-4)Glc
# Outline: as §1
# [13] = target: Gal(b1-3)GalNAc(b1-4)Gal(b1-4)Glc
# Outline: as §1
# [14] = target: Gal(b1-3)GalNAc(b1-4)[Neu5Ac(a2-3)]Gal(b1-4)Glc
# Outline: as §1
# Gal(b1-3)GlcNAc = target: Gal(b1-3)GlcNAc
# Outline: as §1
# [15] = target: Gal(b1-3)GlcNAc(b1-2)Man(a1-3)[Gal(b1-3)GlcNAc(b1-2)Man(a1-6)]Man(b1-4)GlcNAc(b1-4)GlcNAc
# Outline: as §1
# [16] = target: Gal(b1-3)GlcNAc(b1-3)Gal(b1-3)GlcNAc
# Outline: as §1
# [17] = target: Gal(b1-3)GlcNAc(b1-3)Gal(b1-4)Glc
# Outline: as §1
# [18] = target: Gal(b1-3)GlcNAc(b1-3)Gal(b1-4)GlcNAc
# Outline: as §1
# [19] = target: Gal(b1-3)[Fuc(a1-4)]GlcNAc
# Outline: as §1
# [20] = target: Gal(b1-3)[Fuc(a1-4)]GlcNAc(b1-3)Gal(b1-3)[Fuc(a1-4)]GlcNAc
# Outline: as §1
# [21] = target: Gal(b1-3)[Fuc(a1-4)]GlcNAc(b1-3)Gal(b1-4)GlcNAc
# Outline: as §1
binder,measurement,setting,value
"NKp30 (Homo sapiens), O14931 (protein) MAWMLLLILIMVHPGSCALWVSQPPEIRTLEGSSAFLPCSFNASQGRLAIGSVTWFRDEVVPGKEVRNGTPERFGRLAPLASSRFLHDHQAELHIRDVRGHDASIYVCRVEVLGLGVGTGNGTRLVVRKEHPQLGAGTHADPEAPEAEGAPSVFLFPPKPKDTLMISRTPEVTCVVVDVSHEDPEVKFNWYVDGVEVHNAKTPREEQYNSTYRVVSVLTVLHQDWLNGKEYKCKVSNKALPAPIEKTISKAKGQPREPQVYTLPPSRDELTKNQVSLTCLVKGFYPSDIAVEWESNGQPENNYKTTPPVLDSDGSFFLYSKLTVDKSRWQQGNVFSCSVMHEALHNHYTQKSLSLSPGK",glycan array binding signal (z-score),[1],-0.219
same,glycan array binding signal (z-score),[2],-0.545
same,glycan array binding signal (z-score),[3],-0.058
same,glycan array binding signal (z-score),[4],0.413
same,glycan array binding signal (z-score),[5],0.056
same,glycan array binding signal (z-score),[6],0.879
same,glycan array binding signal (z-score),[7],0.207
same,glycan array binding signal (z-score),[8],0.526
same,glycan array binding signal (z-score),[9],-0.395
same,glycan array binding signal (z-score),Fuc(a1-4)GlcNAc,-0.531
same,glycan array binding signal (z-score),Fuc(b1-3)GlcNAc,-0.253
same,glycan array binding signal (z-score),Gal(a1-2)Gal,1.41
same,glycan array binding signal (z-score),Gal(a1-3)Gal,1.89
same,glycan array binding signal (z-score),Gal(a1-3)Gal(b1-3)GlcNAc,0.086
same,glycan array binding signal (z-score),Gal(a1-3)Gal(b1-4)Glc,2.48
same,glycan array binding signal (z-score),Gal(a1-3)Gal(b1-4)GlcNAc,0.054
same,glycan array binding signal (z-score),[10],-0.05
same,glycan array binding signal (z-score),Gal(a1-3)GalNAc,0.08
same,glycan array binding signal (z-score),[11],-0.536
same,glycan array binding signal (z-score),Gal(a1-4)Gal(b1-4)Glc,-0.332
same,glycan array binding signal (z-score),Gal(a1-4)Gal(b1-4)GlcNAc,-0.395
same,glycan array binding signal (z-score),Gal(a1-4)GlcNAc,0.433
same,glycan array binding signal (z-score),Gal(a1-6)Glc,6.49
same,glycan array binding signal (z-score),Gal(b1-2)Gal,0.837
same,glycan array binding signal (z-score),Gal(b1-3)Gal,-0.232
same,glycan array binding signal (z-score),Gal(b1-3)Gal(b1-4)GlcNAc,0.165
same,glycan array binding signal (z-score),Gal(b1-3)GalNAc,0.11
same,glycan array binding signal (z-score),[12],-0.488
same,glycan array binding signal (z-score),[13],-0.215
same,glycan array binding signal (z-score),[14],-0.671
same,glycan array binding signal (z-score),Gal(b1-3)GlcNAc,0.12
same,glycan array binding signal (z-score),[15],-0.106
same,glycan array binding signal (z-score),[16],-0.27
same,glycan array binding signal (z-score),[17],-0.365
same,glycan array binding signal (z-score),[18],-0.421
same,glycan array binding signal (z-score),[19],-0.032
same,glycan array binding signal (z-score),[20],-0.509
same,glycan array binding signal (z-score),[21],-0.678

# — the supplement of paper PMC8728848
